From PubChem BioAssay AID686979 (National Center for Advancing Translational Sciences (NCATS), 2013)
Where “and” joins values, the source holds several entries; their conditions need not be identical. Equal entries are not always repeated. The campaign covered roughly 420,000 compounds. About 50,000 (12%) were called active. This list was built around the results that the source calls inconclusive (neither active nor inactive); the mix of calls is not that of the screen. The call rests on the fitted dose curve; in most records, active means well fitted inhibition curve with a large enough effect; inconclusive means small, poorly fitted or top-dose-only effect; inactive means flat fitted curve, though single readings scatter. Potencies beside an inconclusive call are fits to weak or partial responses and may not hold up.

assay: qHTS for Inhibitors of human tyrosyl-DNA phosphodiesterase 1 (TDP1): qHTS in cells in presence of CPT; details: chicken DT40 Tdp1-/-;hTDP1 cells + 20 nM CPT, ATP luminescence, 48 h; activity change, negative = growth inhibition: at 46.2 µM (top of the series) unless noted; further: nearly all actives have a fitted effect of over 55% in size
How it was run: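 Chicken DT40 Tdp1-/- cells stably complemented with human TDP1 were seeded at 400 cells/well in medium containing 20 nM camptothecin, exposed to pin-transferred compounds, and grown at 37 °C for at least 48 hr. Viability was read as ATP luminescence.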
On the % scale 0 is the no-effect control and ±100 the full control effect; potency means the concentration at half of the fitted maximal effect; tags describe the fitted curve by direction and shape.

SMILES | Potency | activity change, negative = growth inhibition
COc1ccccc1-c1cc2c(c3c1ccn3C)C1CCC2C1 (stereo not drawn) | inconclusive: 29.1 µM [inhibitor, single point] | –
CCOc1ccc2nc(NC(=O)C34CC5CC(CC(NC(C)=O)(C5)C3)C4)sc2c1 | inconclusive: 18.4 µM [inhibitor, single point] | –
Cc1ccc(NC(=O)NCCN2CCN(c3ccccc3)CC2)cc1Cl | inconclusive: 25.9 µM [inhibitor, single point] | –
Cc1ccc(CNC(=O)CO/N=C/c2ccc(C(C)(C)C)cc2)cc1 | inconclusive: 23.1 µM [inhibitor, single point] | –
O=C(Cc1ccccc1)N/N=C/c1cc(Br)cc(Br)c1O | inconclusive: 18.4 µM [inhibitor, single point] | –
COC(=O)c1ccc(OC)c(CSc2nnc(COc3ccccc3)o2)c1 | inconclusive: 25.9 µM [inhibitor, single point] | –
COC1=C(Nc2ccccc2)C(=O)c2ccccc2C1=O | active: 11.6 µM | –
CCOC(=O)C1(C)/C(=N/Nc2ccc(Cl)cc2)C(=O)C(=O)N1c1ccccc1 (stereo not drawn) | – | inactive: -28.1%
Cc1ccc(N2C(=O)C3C(C2=O)C2C=CC3C23CC3)cc1 (stereo not drawn) | – | inactive: -1.32%
Cc1cc(NS(=O)(=O)c2ccc(NC(=O)COc3ccccc3Br)cc2)no1 | – | inactive: -1.05%
Cc1ccccc1Nc1nn2c(=O)c3ccc(C(=O)NCc4cccs4)cc3nc2s1 | active: 16.4 µM | –
S=C(NCC1CCCO1)Nc1cc(Cl)c(Cl)cc1Cl (stereo not drawn) | inconclusive: 4.61 µM [inhibitor, full curve, poor fit] | –
Cc1cc(C)nc(/N=C(\N)Nc2ccc(S(N)(=O)=O)cc2)n1 | – | inactive: -29.6%
CS(=O)(=O)N(CCc1ccccc1)CC(=O)N1CCN(c2ccc(F)cc2)CC1 | inconclusive: 29.1 µM [inhibitor, single point] | –
Cc1ccc(S(=O)(=O)N2CCCC(C(=O)NCCc3ccc4c(c3)OCO4)C2)cc1 (stereo not drawn) | inconclusive: 18.4 µM [inhibitor, single point] | –
CN(C)c1cccc(C(=O)NNC(=O)C23CC4CC(CC(C4)C2)C3)c1 | – | inactive: -5.02%
CCN(C(=O)c1cc2c(=O)[nH]c3ccc(C)cc3c2s1)c1ccccc1F | active: 13 µM | –
Cc1cc(C)cc(NC(=O)CSc2ccc(-c3cccs3)nn2)c1 | inconclusive: 23.1 µM [inhibitor, single point] | –
CC(=O)N(C(C)=O)N1C(=O)C2C3c4ccccc4C(c4ccccc43)C2C1=O (stereo not drawn) | inconclusive: 29.1 µM [inhibitor, single point] | –
O=C(O)CCn1c(SCCc2ccccc2)nc2ccccc21 | – | inactive: 1.85%
Cc1nnc(SCC(=O)N2N=C(c3ccc(Cl)cc3)CC2c2ccco2)[nH]c1=O (stereo not drawn) | active: 14.6 µM | –
COc1ccc(CCNC(=O)c2ccccc2NC(=O)C2=C(C)OCCS2)cc1OC | inconclusive: 25.9 µM [inhibitor, single point] | –
CCN(C(=O)COC(=O)c1c2c(nc3ccccc13)CCC2)c1c(N)n(Cc2ccccc2)c(=O)[nH]c1=O | inconclusive: 29.1 µM [inhibitor, single point] | –

SMILES | Potency | activity change, negative = growth inhibition
Cc1c(S(=O)(=O)N2CCN(C(c3ccccc3)c3ccccc3)CC2)c(=O)n(C)c(=O)n1C | inconclusive: 23.1 µM [inhibitor, single point] | –
CCCc1nc2ccccc2c(C(=O)OCC(=O)c2ccc3c(c2)NC(=O)CO3)c1CC | inconclusive: 11.6 µM [inhibitor, partial curve] | –
COc1ccc(C2C(C(=O)c3ccccc3)=C(C)Nc3nc4ccccc4n32)c(OC)c1 (stereo not drawn) | inconclusive: 29.1 µM [inhibitor, single point] | –
CCOC(=O)c1ccc2ncc(C(=O)OCC)c(Nc3ccc(N4CCOCC4)cc3)c2c1 | active: 10.3 µM | –
O=C(NNc1cccc(Cl)n1)Nc1cccc(C(F)(F)F)c1 | inconclusive: 16.4 µM [inhibitor, partial curve] | –
COc1ccc(S(=O)(=O)n2nc(C)c(S(=O)(=O)N3CCCCCC3)c2C)cc1C | – | inactive: 7.83%
CCc1nn(-c2cc(Oc3cccc4ccccc34)nc(-c3ccccc3)n2)c(N)c1C#N | active: 10.3 µM | –
Cc1ccc(Cn2ncc3c(N4CCN(CC#N)CC4)ncnc32)cc1 | – | inactive: -15.5%
CCC(C)NC(=O)C(=O)NCC1CCCN1CC (stereo not drawn) | – | inactive: -11.2%
CN1CCN(c2nc3c(S(=O)(=O)c4ccc(Cl)cc4)nnn3c3ccsc23)CC1 | inconclusive: 29.1 µM [inhibitor, single point] | –
CC(=O)Nc1ccc(C)cc1-c1nc2ccccc2n(CC(=O)c2ccc(C)c(C)c2)c1=O | inconclusive: 18.4 µM [inhibitor, single point] | –
CCC(C)(C)n1nnnc1C(c1ccc2ncccc2c1)N1CCN(c2nc3ccccc3s2)CC1 (stereo not drawn) | active: 20.6 µM | –
COC(=O)Cn1c(C(=O)N2CCCC2)cc2c1C[C@H]1CN(C(=O)c3ccccc3)[C@@](Cc3ccc(F)cc3)(C(=O)OC)[C@@H]21 | inconclusive: 18.4 µM [inhibitor, single point] | –
Cc1ccccc1-n1c(SCC(=O)NC(N)=O)nc2sc(-c3ccccc3)cc2c1=O | inconclusive: 29.1 µM [inhibitor, single point] | –
O=C(Nc1ccccc1Cl)Nc1ccnn1C1CCN(C(=O)C2CCOC2)CC1 (stereo not drawn) | – | inactive: 1.8%
CCOC(=O)c1c(N)n(-c2ccc(CC)cc2)c2nc3ccccc3nc12 | active: 23.1 µM | –
O=C1c2ccccc2S(=O)(=O)c2cc(C(=O)N3CCC(N4CCCC4)CC3)ccc21 | – | inactive: -14.5%
CCOC(=O)c1cc(C(=O)c2cccs2)n2ccc(C(C)=O)cc12 | inconclusive: 6.51 µM [inhibitor, single point] | –
O=C(O)CSc1nc(-c2ccc(Cl)cc2)nc2c1oc1ccccc12 | inconclusive: 29.1 µM [inhibitor, single point] | –
Cc1sc2ncnc(N3CCC(C(=O)N(C)CC(=O)Nc4ccccc4Br)CC3)c2c1C | inconclusive: 20.6 µM [inhibitor, single point] | –
N#C/C(=C\c1ccc(-c2ccc(S(=O)(=O)N3CCOCC3)cc2)o1)C(=O)NC1CC1 | active: 11.6 µM | –
Cc1ccc(-c2ccc(/C=C3\SC(N4CCOCC4)=NC3=O)o2)cc1 | active: 10.3 µM | –
CCOc1ccccc1NS(=O)(=O)c1ccc(N2CCCCS2(=O)=O)cc1 | inconclusive: 4.61 µM [inhibitor, full curve, poor fit] | –

SMILES | Potency | activity change, negative = growth inhibition
O=C(NCCc1csc(-c2ccc(C(F)(F)F)cc2)n1)C(=O)Nc1ccc(F)c(Cl)c1 | inconclusive: 29.1 µM [inhibitor, single point] | –
O=C(CNC(=O)c1ccccc1)OCC(=O)c1cccc2ccccc12 | inconclusive: 7.08 µM [inhibitor, full curve, poor fit] | –
CCc1ccc([C@@H]2CC(=O)[C@@H]3CN(S(=O)(=O)c4ccc(Cl)cc4)[C@H](c4ccc(C)cc4)C[C@@H]3N2S(=O)(=O)c2ccc(C)cc2)cc1 | – | inactive: -5.04%
Fc1ccccc1CSc1ncnc2c1oc1ccccc12 | inconclusive: 6.51 µM [inhibitor, partial curve] | –
Cc1nc(-c2ccc(F)cc2)sc1CCNC(=O)c1cccs1 | active: 20.6 µM | –
N=C1C(c2ccccc2)=C(O)CN1c1cccc2ccccc12 | inconclusive: 29.1 µM [inhibitor, single point] | –
Cc1ccc(N(CC(=O)N2CCN(c3ccccc3)CC2)S(=O)(=O)c2c(C)noc2C)cc1 | inconclusive: 29.1 µM [inhibitor, single point] | –
[O-]/[N+](=C/c1ccccc1)c1ccccc1 | inconclusive: 29.1 µM [inhibitor, single point] | –
COc1ccc(Cn2c(=O)c3[nH]cnc3n(-c3ccc(C)cc3)c2=O)cc1 | inconclusive: 16.4 µM [inhibitor, single point] | –
O=C(CN1C(=O)CSc2ccc(S(=O)(=O)N3CCOCC3)cc21)NCCCN1CCCCC1 | inactive | –
Cc1ccc(S(=O)(=O)Cc2ccc(C(=O)N3CCCCCC3)o2)cc1 | – | inconclusive: -30.7% [inhibitor]
CC1(C)C(=O)C=CC(=O)C(C)(C)C(=O)C=CC(=O)C(C)(C)C2=CC=C(O2)C(C)(C)C(=O)C=CC1=O | active: 0.82 µM | –
C#CCNC(=O)C1=C[C@@H](c2ccc(C(F)(F)F)cc2)C[C@@H](OCCCCO)O1 | – | inconclusive: -31.7% [inhibitor]
CC(=O)Nc1ccc(NC(=O)/C=C/c2ccc3c(c2)OCO3)cc1 | – | inactive: -4.7%
Cc1cc(C(=O)CSc2nn3c(=O)c(C(C)(C)C)nnc3s2)c(C)n1C1CC1 | inconclusive: 29.1 µM [inhibitor, single point] | –
Cc1ccc(C)c(NC(=O)Cn2c(SCC(=O)NCc3ccccc3)nc3ccccc32)c1 | inconclusive: 0.0517 µM [inhibitor, full curve, poor fit] | –
NS(=O)(=O)c1cc(C(=O)OCC(=O)Nc2ccc(Cl)cc2[N+](=O)[O-])ccc1Cl | – | inactive: -7.65%
COc1ccc(NC(=O)C2CC(=O)N(CCc3ccc(F)cc3)C2)c(OC)c1 (stereo not drawn) | – | inactive: 8.51%
O=c1c2ccccc2nc(SCc2ccccc2Cl)n1Cc1ccccc1 | – | inactive: -1.58%
CCc1ccc(NC(=O)Cn2c(=O)n(-c3ccccc3C)c(=O)c3c2c2cc(OC)ccc2n3C)cc1 | inconclusive: 8.2 µM [inhibitor, partial curve] | –
CNCCC(=O)N1c2ccccc2CCc2ccc(NC(=O)OC)cc21 | inconclusive: 29.1 µM [inhibitor, single point] | –
COc1ccc(NC(=O)CSc2nc3ccccc3nc2N2CCCCC2)cc1 | inconclusive: 18.4 µM [inhibitor, single point] and inconclusive: 29.1 µM [inhibitor, single point] | –
